Measurements reported in the supplement of paper PMC3334620.
Over roughly 33,000 sequences, “E-score (-0.5 to 0.5)” has its median near -0.012; the highest 2% begin near 0.27. Some of the results follow.

Target: T1, Vhr1 (UniProt P40522)
T1 sequence: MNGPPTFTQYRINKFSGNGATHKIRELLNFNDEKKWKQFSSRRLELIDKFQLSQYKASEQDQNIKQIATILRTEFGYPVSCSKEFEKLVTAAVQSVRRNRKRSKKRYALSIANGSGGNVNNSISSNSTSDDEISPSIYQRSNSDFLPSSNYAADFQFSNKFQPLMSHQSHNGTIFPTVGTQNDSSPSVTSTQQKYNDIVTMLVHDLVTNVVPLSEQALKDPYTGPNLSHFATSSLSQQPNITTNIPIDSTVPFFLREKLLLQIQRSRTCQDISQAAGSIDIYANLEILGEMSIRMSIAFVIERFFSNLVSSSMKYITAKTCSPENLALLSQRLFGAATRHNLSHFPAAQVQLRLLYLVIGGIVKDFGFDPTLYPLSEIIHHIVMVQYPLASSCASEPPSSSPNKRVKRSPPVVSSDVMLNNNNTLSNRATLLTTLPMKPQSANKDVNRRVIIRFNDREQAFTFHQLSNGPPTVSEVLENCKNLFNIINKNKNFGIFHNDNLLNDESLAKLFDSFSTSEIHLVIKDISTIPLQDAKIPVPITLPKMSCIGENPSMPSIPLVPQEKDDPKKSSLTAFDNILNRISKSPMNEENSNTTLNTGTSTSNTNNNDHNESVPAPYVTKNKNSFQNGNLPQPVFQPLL
Assay: PBM E-score (8-mer binding enrichment) (E-score (-0.5 to 0.5)); higher = stronger / more preferred TF binding; most listed sequences are background and not binding sites
Settings: protein concentration: 200 nM; construct: GST-full length
Procedure: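 Universal 'all 10-mer' protein binding microarrays (Agilent AMADID 015681) probed with GST-tagged S. cerevisiae TFs (full-length or DBD) made by in vitro transcription/translation (PURExpress), about 100-200 nM. Bound TF was detected with fluorescent anti-GST. Each ungapped 8-mer (which stands for itself and its reverse complement) is scored by the PBM enrichment score (E-score), a modified Wilcoxon-Mann-Whitney statistic from -0.5 to +0.5, computed with the Universal PBM Analysis Suite. Scale: above 0.35 generally sequence-specific binding.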

Row | Sequence | PBM E-score
1 | AAACCTTA | -0.0599
2 | AAACTATA | 0.109
3 | ACTACGTG | 0.0775
4 | CAGTCCGC | 0.0926
5 | CACCGTGG | 0.0821
6 | AGCTAAAG | -0.21
7 | GGCTGCGA | 0.12
8 | CCGCTGCC | -0.0547
9 | CAAATACC | 0.0617
10 | ATGCGAGA | -0.285
11 | ACGACGCC | -0.036
12 | GTGATTCA | 0.408
13 | CGGCGGGC | 0.221
14 | GGTAGTTA | 0.0143
15 | ACGCTGGG | -0.122
16 | AGGCAAGG | -0.292
17 | CGGCAGGC | -0.107
18 | ACATATAC | 0.157
19 | ACTGGGAT | 0.0499
20 | ATGGACGG | 0.101
21 | CGTACGAC | -0.0342
22 | CAGATCAC | -0.108
23 | GGAGTCGA | 0.122
24 | CGTAATTA | -0.128
25 | CGATGGAG | 0.157

Row | Sequence | PBM E-score
26 | CAAGGTCG | 0.00057
27 | AAGAGTCT | 0.00073
28 | CGAGTTAA | 0.0624
29 | CACTGAAG | 0.032
30 | CGGGCCTC | -0.111
31 | AATTGGTA | 0.0224
32 | CCATTAGC | -0.0966
33 | CGATTCAG | 0.12
34 | GCTGTCTA | -0.057
35 | TACCACAA | 0.15
36 | AGCAGGCA | 0.092
37 | AGTCGATC | 0.111
38 | TCCTAACA | -0.065
39 | AAAACACC | -0.0811
40 | ACGACAAA | 0.092
41 | CTTCAGCC | -0.113
42 | ACGTAGCG | -0.156
43 | ATTTTACA | -0.251
44 | CTCCCCTA | 0.0411
45 | CGCTTGCA | 0.0634
46 | CGCCGCAG | 0.211
47 | TAGCCTCA | 0.0353
48 | CTCAATCC | -0.0448
49 | GGCGACTA | 0.212
50 | ACGCCAGC | -0.0673

Row | Sequence | PBM E-score
51 | TCCCGACA | 0.094
52 | AGACTTCA | -0.355
53 | AATAAGAA | -0.0239
54 | AAAGAATA | -0.0407
55 | GTCCTCTA | -0.174
56 | ATGGGCCC | -0.027
57 | CAACGGAC | -0.158
58 | CTTCGTGC | 0.0452
59 | AGGGCGTC | -0.161
60 | CCTTGAAG | -0.196
61 | ACCCCATA | 0.139
62 | AGAAGGAT | -0.286
63 | GCGTTATA | -0.0946
64 | GACTCCCA | 0.243
65 | TACGTGCA | 0.08
66 | CACATCAA | 0.217
67 | GGGTCGTA | -0.0961
68 | GACACGAA | -0.0279
69 | GAATCAAC | 0.247
70 | AGCTCTAG | -0.176
71 | CATGGGTC | 0.221
72 | GCATGCAC | -0.00024
73 | CCGAATCA | 0.288
74 | GCCATTAA | 0.00149
75 | TAGGGGAA | -0.0316

Row | Sequence | PBM E-score
76 | ACAGTCCC | -0.0066
77 | ATGGAGTG | -0.0367
78 | ACTATCAT | 0.251
79 | AAGTGAAG | -0.187
80 | AAACGGCT | -0.125
81 | CGTGCCTA | -0.244
82 | CTCAGGCC | -0.146
83 | ATCCCCCC | -0.0929
84 | ACCGCAAC | 0.255
85 | CGTATATC | -0.0872
86 | CGCCAGGC | 0.126
87 | CTTTTCCA | -0.21
88 | AGTACTCG | 0.224
89 | ACTCCGCT | 0.143
90 | AGGTTAGA | -0.15
91 | AGTTCACA | -0.0541
92 | TCAATCAA | 0.143
93 | ACGGAAGC | -0.0873
94 | CACCCTGC | 0.215
95 | GCATTCCC | -0.0631
96 | TACCTCAA | -0.209
97 | AAGGGTCA | -0.0962
98 | ATCTTCTA | -0.0197
99 | ACATACCC | 0.178
100 | GCAAAGGA | -0.095

Row | Sequence | PBM E-score
101 | ATCAACTA | 0.144
102 | ATATTCCC | -0.0984
103 | GAATTGCC | -0.264
104 | GACCAACC | 0.00776
105 | AAAGCAGA | -0.197
106 | CAAGAGGA | 0.0561
107 | CGCCAGCG | -0.119
108 | TTGTGAAA | -0.058
109 | ACATGATC | 0.154
110 | AAGGTTTA | -0.117
111 | GCTCTCCC | -0.0667
112 | AAAATATT | -0.0198
113 | AGTGGACC | -0.216
114 | AATGGGGC | -0.0557
115 | ATGTCCGA | -0.123
116 | CGATTTAA | -0.137
117 | CATTAAAC | -0.154
118 | CTGTAACC | 0.112
119 | CAGGGATG | 0.159
120 | CATAAATC | 0.141
121 | GATTTGGA | -0.0941
122 | GAGTAACA | 0.286
123 | ATTATGCA | 0.0497
124 | AAAGCATG | -0.0101
125 | CCGGGAAA | -0.0862

Row | Sequence | PBM E-score
126 | GGGAGGGA | 0.134
127 | AACCATGA | 0.351
128 | CAGGTTAC | -0.0849
129 | CGGAGAGA | 0.0791
130 | CAGGATGG | 0.0704
131 | TAGCGATA | 0.097
132 | AGGCGAAA | -0.128
133 | GACGGGAC | -0.136
134 | GAATCCAA | 0.0442
135 | AAGGAAAC | -0.195
136 | ACCCAGTG | 0.118
137 | ACACACTA | 0.215
138 | AATGCATT | 0.112
139 | ATCCAACG | -0.0529
140 | CTGGGCTA | -0.0712
141 | CTATTTCA | 0.0766
142 | CGCCAGGA | 0.00566
143 | AGCGACGG | 0.0711
144 | ACGAGCAG | 0.0226
145 | AAATCATA | 0.227
146 | AAGCGAAC | -0.088
147 | CGCGCTCA | 0.217
148 | ATACGACC | 0.0624
149 | CGGGCGAA | -0.0145
150 | GGGCGAAC | 0.182

Row | Sequence | PBM E-score
151 | GTCGGTTA | 0.00288
152 | ACCGTCGT | 0.027
153 | CATCTTCC | 0.099
154 | ACATTGGC | 0.0163
155 | CACCGGAC | 0.149
156 | CCTGGCTA | 0.0159
157 | CACAAGGC | -0.112
158 | CAGGAGTC | 0.373
159 | CCCTCAGG | -0.226
160 | ATGATGTC | 0.131
161 | ACTGAAAT | 0.0362
162 | AGTTACTG | 0.153
163 | AGAAATGG | -0.00785
164 | CACATGTG | 0.239
165 | CATCAACA | 0.155
166 | AGACTGGA | 0.0391
167 | AATGTCCG | 0.0003
168 | TGAGCTCA | 0.232
169 | AAGCCCAA | -0.181
170 | CACAGAGA | -0.00376
171 | CAATCTAG | -0.105
172 | CAACCGGA | 0.0826
